We go through 153 variants from a collection of fitness landscapes (doi:10.1016/j.celrep.2020.107928).

Whole data set: some 81,000 sequences, median “one-hybrid fitness for binding NBS DNA” near -0.1, cut for the highest 2% near 0.36. The list shows a part of the results.

B1: Caulobacter ParB omega fusion; a variant is named by its letters at X, in order, B8GW30 (parent)
chain: MESVVVGEPGMSEGRRGLGRGLSALLGEVDAAPAQAPGEQLGGSREAPIEILQRNPDQPRRTFREEDLEDLSNSIREKGVLQPILVRPSPDTAGEYQIVAGERAWRAAQRAGLKTVPIMVRELDDLAVLEIGIIENVQRADLNVLEEALSYKVLMEKFERTQENIAQTIGKSXSHVANXMRLLXLPDEVQSYLVSGELTAXHARAIAAAADPVALAKQIIEGGLSVRETEALARKAPNLSAGKSKGGRPPRVKDTDTQALESDLSSVLGLDVSIDHRGSTGTLTITYATLEQLDDLCNRLTRGI

The variants in the experiment derive from B1. The experiment is described as follows: one-hybrid fitness for binding NBS DNA (the Noc-binding site; scaled: cognate 1, non-cognate 0); higher = stronger binding. The note with it: with NBS DNA site. In a few lines:
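Selection: bacterial one-hybrid in E. coli USO, HIS3 reporter with the site 19 bp from the promoter, 48 hours at 37°C on M9-minus-histidine plus 0.1 mM IPTG and 5 mM 3-AT. Libraries were Caulobacter ParB with four randomised specificity codons, sequenced on Illumina before and after selection. Fitness is the rescaled log change in variant-to-wild-type read ratio, anchored to the cognate and non-cognate sites.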
MLAT: the “one-hybrid fitness for binding NBS DNA” value was not above 0.2.

As to SPYK, the “one-hybrid fitness for binding NBS DNA” value was not above 0.2.

For the variant KMKA, the “one-hybrid fitness for binding NBS DNA” value is not above 0.2.

As to RYHK, the “one-hybrid fitness for binding NBS DNA” value is not above 0.2.

Consider ATYF, for which the “one-hybrid fitness for binding NBS DNA” value was not above 0.2.

For ANVG, the “one-hybrid fitness for binding NBS DNA” value is not above 0.2.

For the variant QGDG, the “one-hybrid fitness for binding NBS DNA” value was not above 0.2.

As for SFTI, the “one-hybrid fitness for binding NBS DNA” value was not above 0.2.

Consider VHTV, for which the “one-hybrid fitness for binding NBS DNA” value is not above 0.2.

Take SAFF: the “one-hybrid fitness for binding NBS DNA” value is not above 0.2.

For TVVE, the “one-hybrid fitness for binding NBS DNA” value is not above 0.2.

For TYMA, the “one-hybrid fitness for binding NBS DNA” value is not above 0.2.

With VDTT, the “one-hybrid fitness for binding NBS DNA” value is not above 0.2.

Consider ECTE, for which the “one-hybrid fitness for binding NBS DNA” value is not above 0.2.

Consider RSFD, for which the “one-hybrid fitness for binding NBS DNA” value is not above 0.2.

PTNA: the “one-hybrid fitness for binding NBS DNA” value was not above 0.2.

For RLMT, the “one-hybrid fitness for binding NBS DNA” value was 0.335.

As for STFT, the “one-hybrid fitness for binding NBS DNA” value is not above 0.2.

With RSEN, the “one-hybrid fitness for binding NBS DNA” value is not above 0.2.

As for YDQS, the “one-hybrid fitness for binding NBS DNA” value was not above 0.2.

MPKR: the “one-hybrid fitness for binding NBS DNA” value is not above 0.2.

Consider RHIG, for which the “one-hybrid fitness for binding NBS DNA” value was not above 0.2.

With ERMG, the “one-hybrid fitness for binding NBS DNA” value is not above 0.2.

Regarding PYTR, the “one-hybrid fitness for binding NBS DNA” value was not above 0.2.

Turning to CPND, the “one-hybrid fitness for binding NBS DNA” value was not above 0.2.

Take AGHV: the “one-hybrid fitness for binding NBS DNA” value was not above 0.2.

As for TAAI, the “one-hybrid fitness for binding NBS DNA” value was not above 0.2.

For the variant TRYG, the “one-hybrid fitness for binding NBS DNA” value is not above 0.2.

Consider LHLL, for which the “one-hybrid fitness for binding NBS DNA” value was not above 0.2.

With GFDF, the “one-hybrid fitness for binding NBS DNA” value is not above 0.2.

Take QQLR: the “one-hybrid fitness for binding NBS DNA” value was found to be 0.567.

With PYCS, the “one-hybrid fitness for binding NBS DNA” value is not above 0.2.

YTLE: the “one-hybrid fitness for binding NBS DNA” value is not above 0.2.

In the case of QAIC, the “one-hybrid fitness for binding NBS DNA” value was not above 0.2.

On to YWVG, for which the “one-hybrid fitness for binding NBS DNA” value is not above 0.2.

Regarding RPYR, the “one-hybrid fitness for binding NBS DNA” value is not above 0.2.

For the variant HPIL, the “one-hybrid fitness for binding NBS DNA” value was not above 0.2.

On to TLEA, for which the “one-hybrid fitness for binding NBS DNA” value was not above 0.2.

RCAA: the “one-hybrid fitness for binding NBS DNA” value amounted to 0.234.

Turning to STRC, the “one-hybrid fitness for binding NBS DNA” value is not above 0.2.

For VVFV, the “one-hybrid fitness for binding NBS DNA” value was not above 0.2.

Consider SISF, for which the “one-hybrid fitness for binding NBS DNA” value is not above 0.2.

Consider PVIC, for which the “one-hybrid fitness for binding NBS DNA” value is not above 0.2.

DLQR: the “one-hybrid fitness for binding NBS DNA” value was not above 0.2.

For the variant THMR, the “one-hybrid fitness for binding NBS DNA” value is not above 0.2.

Turning to NDMC, the “one-hybrid fitness for binding NBS DNA” value was not above 0.2.

For the variant PKKW, the “one-hybrid fitness for binding NBS DNA” value is not above 0.2.

Take DPFS: the “one-hybrid fitness for binding NBS DNA” value is not above 0.2.

Turning to VVRG, the “one-hybrid fitness for binding NBS DNA” value is not above 0.2.

With PKRL, the “one-hybrid fitness for binding NBS DNA” value was not above 0.2.

Regarding WVAS, the “one-hybrid fitness for binding NBS DNA” value was not above 0.2.

Consider SSKT, for which the “one-hybrid fitness for binding NBS DNA” value is not above 0.2.

Take KYMR: the “one-hybrid fitness for binding NBS DNA” value is not above 0.2.

As for NAHA, the “one-hybrid fitness for binding NBS DNA” value was not above 0.2.

In the case of IKYG, the “one-hybrid fitness for binding NBS DNA” value was not above 0.2.

On to TSLY, for which the “one-hybrid fitness for binding NBS DNA” value is not above 0.2.

LCRR: the “one-hybrid fitness for binding NBS DNA” value was determined as 0.241.

For the variant NFEL, the “one-hybrid fitness for binding NBS DNA” value was not above 0.2.

For QIKW, the “one-hybrid fitness for binding NBS DNA” value was not above 0.2.

Consider RFNM, for which the “one-hybrid fitness for binding NBS DNA” value was not above 0.2.

As to RTNQ, the “one-hybrid fitness for binding NBS DNA” value was found to be 0.201.

VHET: the “one-hybrid fitness for binding NBS DNA” value was not above 0.2.

As to AVSY, the “one-hybrid fitness for binding NBS DNA” value was not above 0.2.

As for RPNE, the “one-hybrid fitness for binding NBS DNA” value was not above 0.2.

On to NNCW, for which the “one-hybrid fitness for binding NBS DNA” value was not above 0.2.

For QSMS, the “one-hybrid fitness for binding NBS DNA” value was found to be 0.302.

On to GWCS, for which the “one-hybrid fitness for binding NBS DNA” value is not above 0.2.

Turning to NQAE, the “one-hybrid fitness for binding NBS DNA” value was not above 0.2.

Turning to GYCD, the “one-hybrid fitness for binding NBS DNA” value is not above 0.2.

Take RLWF: the “one-hybrid fitness for binding NBS DNA” value was not above 0.2.

As for QHSG, the “one-hybrid fitness for binding NBS DNA” value was not above 0.2.

On to SANL, for which the “one-hybrid fitness for binding NBS DNA” value is not above 0.2.

Consider YNCR, for which the “one-hybrid fitness for binding NBS DNA” value is not above 0.2.

For the variant AANT, the “one-hybrid fitness for binding NBS DNA” value was not above 0.2.

For the variant GHCH, the “one-hybrid fitness for binding NBS DNA” value is not above 0.2.

For KILI, the “one-hybrid fitness for binding NBS DNA” value is not above 0.2.

As for DSSF, the “one-hybrid fitness for binding NBS DNA” value is not above 0.2.

As for ALFF, the “one-hybrid fitness for binding NBS DNA” value is not above 0.2.

For the variant WEAS, the “one-hybrid fitness for binding NBS DNA” value was not above 0.2.

With QLFV, the “one-hybrid fitness for binding NBS DNA” value is not above 0.2.

Regarding KCRT, the “one-hybrid fitness for binding NBS DNA” value was 0.315.

As for ACAI, the “one-hybrid fitness for binding NBS DNA” value is not above 0.2.

For LFMR, the “one-hybrid fitness for binding NBS DNA” value was not above 0.2.

Take RDKP: the “one-hybrid fitness for binding NBS DNA” value is not above 0.2.

On to SEQD, for which the “one-hybrid fitness for binding NBS DNA” value was not above 0.2.

On to AFTG, for which the “one-hybrid fitness for binding NBS DNA” value was not above 0.2.

Turning to IPPA, the “one-hybrid fitness for binding NBS DNA” value is not above 0.2.

As for TTNR, the “one-hybrid fitness for binding NBS DNA” value was not above 0.2.

For the variant RCND, the “one-hybrid fitness for binding NBS DNA” value was not above 0.2.

For the variant KRYP, the “one-hybrid fitness for binding NBS DNA” value is not above 0.2.

For YPSS, the “one-hybrid fitness for binding NBS DNA” value was not above 0.2.

On to MHHG, for which the “one-hybrid fitness for binding NBS DNA” value is not above 0.2.

Take QSGM: the “one-hybrid fitness for binding NBS DNA” value was not above 0.2.

Turning to SDQI, the “one-hybrid fitness for binding NBS DNA” value is not above 0.2.

As to ATQT, the “one-hybrid fitness for binding NBS DNA” value is not above 0.2.

As to WLKS, the “one-hybrid fitness for binding NBS DNA” value was not above 0.2.

As for YYTF, the “one-hybrid fitness for binding NBS DNA” value was not above 0.2.

QNTH: the “one-hybrid fitness for binding NBS DNA” value is not above 0.2.

Take HARH: the “one-hybrid fitness for binding NBS DNA” value was not above 0.2.

As for EPSA, the “one-hybrid fitness for binding NBS DNA” value is not above 0.2.

For the variant DYNV, the “one-hybrid fitness for binding NBS DNA” value is not above 0.2.

Turning to WFCT, the “one-hybrid fitness for binding NBS DNA” value was not above 0.2.

On to SRGF, for which the “one-hybrid fitness for binding NBS DNA” value was not above 0.2.

Turning to GQYS, the “one-hybrid fitness for binding NBS DNA” value was not above 0.2.

As for QGHI, the “one-hybrid fitness for binding NBS DNA” value is not above 0.2.

Regarding TASV, the “one-hybrid fitness for binding NBS DNA” value was not above 0.2.

As for PLNE, the “one-hybrid fitness for binding NBS DNA” value is not above 0.2.

For LDLF, the “one-hybrid fitness for binding NBS DNA” value is not above 0.2.

For the variant ARRE, the “one-hybrid fitness for binding NBS DNA” value was not above 0.2.

Turning to RVSS, the “one-hybrid fitness for binding NBS DNA” value came to 0.39.

As for YTRT, the “one-hybrid fitness for binding NBS DNA” value is not above 0.2.

In the case of REMT, the “one-hybrid fitness for binding NBS DNA” value is not above 0.2.

As for CRLC, the “one-hybrid fitness for binding NBS DNA” value is not above 0.2.

Consider HVMR, for which the “one-hybrid fitness for binding NBS DNA” value was not above 0.2.

For the variant HPKN, the “one-hybrid fitness for binding NBS DNA” value is not above 0.2.

As to AQAG, the “one-hybrid fitness for binding NBS DNA” value is not above 0.2.

Turning to TEDG, the “one-hybrid fitness for binding NBS DNA” value was not above 0.2.

In the case of TIYI, the “one-hybrid fitness for binding NBS DNA” value is not above 0.2.

For VFTS, the “one-hybrid fitness for binding NBS DNA” value was not above 0.2.

Regarding KIDS, the “one-hybrid fitness for binding NBS DNA” value is not above 0.2.

As to IRPL, the “one-hybrid fitness for binding NBS DNA” value was not above 0.2.

For the variant QPYH, the “one-hybrid fitness for binding NBS DNA” value is not above 0.2.

On to DPGT, for which the “one-hybrid fitness for binding NBS DNA” value was not above 0.2.

As for VVLD, the “one-hybrid fitness for binding NBS DNA” value is not above 0.2.

Regarding QRKP, the “one-hybrid fitness for binding NBS DNA” value was 0.404.

With NSAG, the “one-hybrid fitness for binding NBS DNA” value was not above 0.2.

Regarding TSHQ, the “one-hybrid fitness for binding NBS DNA” value is not above 0.2.

Regarding HNAC, the “one-hybrid fitness for binding NBS DNA” value was not above 0.2.

Take LFSL: the “one-hybrid fitness for binding NBS DNA” value is not above 0.2.

PRFM: the “one-hybrid fitness for binding NBS DNA” value was not above 0.2.

SHIR: the “one-hybrid fitness for binding NBS DNA” value is not above 0.2.

As for RQVV, the “one-hybrid fitness for binding NBS DNA” value was not above 0.2.

With PLQP, the “one-hybrid fitness for binding NBS DNA” value was not above 0.2.

As to WINM, the “one-hybrid fitness for binding NBS DNA” value was not above 0.2.

As for RQFM, the “one-hybrid fitness for binding NBS DNA” value was not above 0.2.

As to LSRY, the “one-hybrid fitness for binding NBS DNA” value was not above 0.2.

As for CENR, the “one-hybrid fitness for binding NBS DNA” value was not above 0.2.

As to NWDR, the “one-hybrid fitness for binding NBS DNA” value was not above 0.2.

For LGSP, the “one-hybrid fitness for binding NBS DNA” value is not above 0.2.

AAML: the “one-hybrid fitness for binding NBS DNA” value is not above 0.2.

On to RSHP, for which the “one-hybrid fitness for binding NBS DNA” value is not above 0.2.

As to NPWL, the “one-hybrid fitness for binding NBS DNA” value was not above 0.2.

In the case of RPMI, the “one-hybrid fitness for binding NBS DNA” value was not above 0.2.

Consider MNDR, for which the “one-hybrid fitness for binding NBS DNA” value was not above 0.2.

In the case of SRIT, the “one-hybrid fitness for binding NBS DNA” value was not above 0.2.

In the case of RVCY, the “one-hybrid fitness for binding NBS DNA” value is not above 0.2.

As to PYTK, the “one-hybrid fitness for binding NBS DNA” value was not above 0.2.

As to YRKF, the “one-hybrid fitness for binding NBS DNA” value was not above 0.2.

AQRD: the “one-hybrid fitness for binding NBS DNA” value was not above 0.2.

On to AELT, for which the “one-hybrid fitness for binding NBS DNA” value was not above 0.2.

On to NDMH, for which the “one-hybrid fitness for binding NBS DNA” value was not above 0.2.

For QPSF, the “one-hybrid fitness for binding NBS DNA” value is not above 0.2.

For the variant HESA, the “one-hybrid fitness for binding NBS DNA” value was not above 0.2.
